Results: the supplement of paper PMC10320760
This is a noisy data set.

B1: Ydj1; a variant is named by its letters at X, in order (parent)
chain: MVKETKFYDILGVPVTATDVEIKKAYRKCALKYHPDKNPSEEAAEKFKEASAAYEILSDPEKRDIYDQFGEDGLSGAGGAGGFPGGGFGFGDDIFSQFFGAGGAQRPRGPQRGKDIKHEISASLEELYKGRTAKLALNKQILCKECEGRGGKKGAVKKCTSCNGQGIKFVTRQMGPMIQRFQTECDVCHGTGDIIDPKDRCKSCNGKKVENERKILEVHVEPGMKDGQRIVFKGEADQAPDVIPGDVVFIVSERPHKSFKRDGDDLVYEAEIDLLTAIAGGEFALEHVSGDWLKVGIVPGEVIAPGMRKVIEGKGMPIPKYGGYGNLIIKFTIKFPENHFTSEENLKKLEEILPPRIVPAIPKKATVDECVLADFDPAKYNRTRASRGGANYDSDEEEQGGEGVQCXXX

Variants of: B1
Experiment: enrichment factor, frequency at 37 °C / frequency at 25 °C (thermotolerance selection) (ratio); higher = more growth at 37 °C, higher likelihood of farnesylation
Settings: with Saccharomyces cerevisiae ydj1Δ (yWS304); selective temperature 37 °C; reference temperature 25 °C
Method: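 Pooled library of all 8,000 Ydj1-CXXX C-terminal motif variants (native CASQ replaced by C + three variable residues, one codon per amino acid) expressed from a CEN plasmid in S. cerevisiae ydj1Δ (yWS304). The library was grown in SC-Ura liquid to A600 ~2 (~8 generations) at permissive 25 °C or selective 37 °C. Reads from 8 and 7 replicates were pooled and variants counted by NGS. Enrichment factor = frequency at 37 °C / frequency at 25 °C, with a +1 correction; it reports Ydj1-dependent thermotolerance, used as a read-out of farnesylation by yeast FTase.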

| Variant | enrichment factor |
| --- | --- |
| QGC | 1.92 |
| QGD | 0.105 |
| QGG | 0.176 |
| QGA | 1.12 |
| QGE | 0.157 |
| QGI | 1.24 |
| QGH | 1.94 |
| QGF | 1.37 |
| QGK | 0.148 |
| TGC | 0.677 |
| TGF | 0.825 |
| TGI | 1.71 |
| TGH | 1.9 |
| TGK | 0.159 |
| TGE | 0.167 |
| TGA | 1.83 |
| TGD | 0.261 |
| TGG | 0.398 |
| FGC | 0.11 |
| FGG | 0.63 |
| FGD | 0.182 |
| FGH | 1.21 |
| FGI | 1.26 |
| FGK | 0.136 |

| Variant | enrichment factor |
| --- | --- |
| FGE | 0.176 |
| FGF | 1.04 |
| PGC | 1.16 |
| PGG | 0.113 |
| PGD | 0.0899 |
| PGF | 1.32 |
| PGK | 0.134 |
| PGH | 1.69 |
| PGI | 0.789 |
| PGA | 0.99 |
| PGE | 0.168 |
| RGF | 0.718 |
| RGI | 0.962 |
| RGK | 0.232 |
| RGD | 0.311 |
| RGH | 1.63 |
| RGA | 1.78 |
| RGG | 0.137 |
| RGE | 0.21 |
| RGC | 0.61 |
| VGE | 0.138 |
| VGD | 0.209 |
| VGG | 1.37 |
| VGH | 1.69 |

| Variant | enrichment factor |
| --- | --- |
| VGC | 0.866 |
| VGA | 1.19 |
| VGI | 1.8 |
| VGF | 1.75 |
| SGE | 0.0499 |
| SGI | 1.33 |
| SGG | 0.441 |
| SGA | 1.33 |
| SGC | 1.15 |
| SGH | 1.85 |
| SGF | 1.57 |
| SGD | 0.045 |
| SGK | 0.204 |
| AGI | 1.43 |
| AGE | 0.216 |
| AGC | 0.914 |
| AGF | 1.53 |
| AGG | 0.872 |
| AGD | 0.189 |
| AGK | 0.163 |
| AGH | 1.73 |
| MGD | 0.106 |
| MGH | 1.52 |
| MGK | 0.105 |

| Variant | enrichment factor |
| --- | --- |
| MGG | 0.255 |
| MGI | 0.972 |
| MGE | 0.0812 |
| MGC | 0.123 |
| MGF | 0.509 |
| DGG | 0.129 |
| DGA | 0.164 |
| DGI | 0.192 |
| DGD | 0.0919 |
| DGE | 0.149 |
| DGH | 0.106 |
| DGC | 0.233 |
| DGF | 1.5 |
| LGG | 0.844 |
| LGD | 0.16 |
| LGK | 0.155 |
| LGC | 0.131 |
| LGF | 0.684 |
| LGH | 1.26 |
| LGI | 0.857 |
| LGE | 0.194 |
| IGK | 0.169 |
| IGD | 0.157 |
| IGE | 0.138 |

| Variant | enrichment factor |
| --- | --- |
| IGF | 2.02 |
| IGC | 0.155 |
| IGH | 1.42 |
| IGI | 1.1 |
| IGG | 1.16 |
| HGF | 2.43 |
| HGK | 0.149 |
| HGH | 1.65 |
| HGI | 0.241 |
| HGC | 1.33 |
| HGD | 0.145 |
| HGE | 0.12 |
| HGG | 0.501 |
| NGI | 1.06 |
| NGC | 1.4 |
| NGF | 1.92 |
| NGK | 0.109 |
| NGE | 0.102 |
| NGH | 1.57 |
| NGA | 0.787 |
| NGD | 0.322 |
| NGG | 0.323 |
| EGD | 0.161 |
| EGH | 1.14 |

| Variant | enrichment factor |
| --- | --- |
| EGC | 1.31 |
| EGE | 0.217 |
| EGI | 0.507 |
| EGG | 0.0554 |
| EGF | 1.68 |
| EGK | 0.161 |
| WGA | 1.26 |
| WGC | 0.0513 |
| WGF | 1.27 |
| WGG | 1.62 |
| WGH | 1.53 |
| WGE | 0.399 |
| WGD | 0.2 |
| WGI | 1.51 |
| YGA | 0.646 |
| YGC | 1.3 |
| YGG | 0.277 |
| YGH | 0.731 |
| YGF | 1.42 |
| YGE | 0.163 |
| YGD | 0.136 |
| YGI | 0.324 |
| GGD | 0.114 |
| GGK | 0.0755 |

| Variant | enrichment factor |
| --- | --- |
| GGH | 0.521 |
| GGE | 0.17 |
| GGG | 0.214 |
| GGC | 0.544 |
| GGI | 0.323 |
| GGF | 1.89 |
| KGI | 0.143 |
| KGC | 1.22 |
| KGD | 0.437 |
| KGG | 0.263 |
| KGK | 0.133 |
| KGF | 2.09 |
| KGE | 0.126 |
| KGH | 1.86 |
| CGI | 0.322 |
| CGA | 0.732 |
| CGF | 0.463 |
| CGH | 0.135 |
| CGG | 0.563 |
| CGE | 0.131 |
| CGD | 0.201 |
| CGK | 0.142 |
| CGC | 0.0739 |
